# Source: the supplement of paper PMC3334620
# Over roughly 33,000 sequences, “E-score (-0.5 to 0.5)” has its median near -0.011; the highest 2% begin near 0.28. This is one part of the list.
# Target: T1, Gcr1 (UniProt P07261)
# T1 sequence: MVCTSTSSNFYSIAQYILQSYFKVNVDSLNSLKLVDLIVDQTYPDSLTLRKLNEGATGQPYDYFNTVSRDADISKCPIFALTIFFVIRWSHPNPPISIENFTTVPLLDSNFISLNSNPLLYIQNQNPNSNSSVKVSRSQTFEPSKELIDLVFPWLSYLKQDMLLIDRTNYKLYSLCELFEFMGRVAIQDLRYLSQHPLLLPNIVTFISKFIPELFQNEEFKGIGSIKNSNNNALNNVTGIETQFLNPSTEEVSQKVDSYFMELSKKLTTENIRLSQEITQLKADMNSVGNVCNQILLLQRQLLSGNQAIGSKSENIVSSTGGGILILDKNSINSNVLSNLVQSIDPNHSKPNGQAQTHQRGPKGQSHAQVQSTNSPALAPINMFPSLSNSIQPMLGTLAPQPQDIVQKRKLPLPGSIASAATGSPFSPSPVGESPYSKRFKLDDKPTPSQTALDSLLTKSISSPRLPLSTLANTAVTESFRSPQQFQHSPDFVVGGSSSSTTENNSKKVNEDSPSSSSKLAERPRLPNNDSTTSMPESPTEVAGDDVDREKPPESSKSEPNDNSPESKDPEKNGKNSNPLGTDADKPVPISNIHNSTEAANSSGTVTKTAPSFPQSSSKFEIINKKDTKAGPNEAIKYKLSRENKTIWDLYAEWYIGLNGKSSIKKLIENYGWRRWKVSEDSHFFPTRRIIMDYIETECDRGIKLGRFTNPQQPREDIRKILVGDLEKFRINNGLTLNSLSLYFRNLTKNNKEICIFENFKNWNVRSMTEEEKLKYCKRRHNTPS
# Assay: PBM E-score (8-mer binding enrichment) (E-score (-0.5 to 0.5)); higher = stronger / more preferred TF binding; most listed sequences are background and not binding sites
# Settings: protein concentration: 100 nM; construct: GST-full length
# Procedure, shortened: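 GST-tagged yeast TFs (full-length or DNA-binding domain) were made by PURExpress in vitro transcription/translation and applied at about 100-200 nM to universal all-10-mer Agilent arrays. The arrays were made double-stranded by primer extension, on fresh or once-stripped slides. Bound protein was detected with fluorescent anti-GST, and scans were normalised with masliner. Each ungapped eight-base word, pooled with its reverse complement, received an E-score (modified Wilcoxon-Mann-Whitney statistic) from the Universal PBM Analysis Suite.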
row,Sequence,PBM E-score
1,AAGTTACC,0.147
2,CCGGCCCA,-0.128
3,CTACGAAC,-0.107
4,CCCGATAC,0.101
5,GTGCCAAA,0.113
6,AAATATCA,0.11
7,AAGGGTTG,-0.087
8,CTCGCATA,0.0987
9,ACTAGTCA,-0.238
10,GAAACGTC,-0.159
11,CTATTAGA,-0.0419
12,CCAATAGG,0.149
13,ATGGTCTA,-0.0848
14,TCTGAACA,0.0984
15,AACGGACG,0.15
16,CGCGGCGA,-0.0356
17,AGCCGGGA,0.125
18,ATGTCAGC,-0.0842
19,ACGGTTCT,-0.00189
20,ATGTTCTC,-0.285
21,CTACTTTC,0.263
22,GTTAATTA,0.0274
23,CTTTAACA,0.103
24,AGAGTGAT,-0.112
25,CGGCGAAC,-0.078

row,Sequence,PBM E-score
1,TGATGCCA,-0.0459
2,CGGTTGTA,-0.121
3,ATTCAAAA,0.123
4,AAAATAAA,0.069
5,GTGTGCGA,-0.112
6,CGGTCGAC,-0.0972
7,GTTGAGGA,0.00766
8,AGTTATGA,0.0673
9,ATCGAGTA,0.0934
10,CTTTGTGC,-0.0221
11,TCCACTCA,0.189
12,CCGCATTA,-0.073
13,ATACCCTC,-0.152
14,AATGCAGC,-0.167
15,GGGGCATA,-0.0439
16,ACCAAAAG,0.033
17,CCGGATAG,-0.0981
18,GACTCTAA,0.0472
19,AGTATTCA,-0.062
20,TCATCCCA,-0.0573
21,CCAGTAAA,0.189
22,TAATTTCA,0.179
23,CCTGGGCC,-0.105
24,AGGCTGCG,0.138
25,CGCGGTAC,-0.0822

row,Sequence,PBM E-score
1,TACATCCA,0.0312
2,TCATAAGA,-0.105
3,ACCGAGTG,0.0115
4,ACTGGCGG,0.0575
5,GTAAGTCA,-0.0235
6,CTAGGTGC,0.136
7,ACAGAGAA,-0.134
8,CGGCCGAC,-0.197
9,TATTGAGA,-0.00228
10,ACCGGCGG,-0.00673
11,CCTTTAAG,-0.0224
12,CGACCGGA,0.0225
13,GTGGAAGA,0.172
14,GCATCAAC,0.15
15,AAAATTTA,0.124
16,CCTGTAAG,0.0417
17,ACTTCCCA,0.0658
18,ACGCCCGA,-0.131
19,CGAAAAAG,0.169
20,ACCAGGGA,-0.175
21,CCGGGGAG,0.0389
22,ACTAGAAT,0.257
23,AACTATGT,0.00327
24,AATCAAGT,0.0987
25,ACACGACG,0.267

row,Sequence,PBM E-score
1,ATTTGTCA,0.0547
2,ATGTAAGA,-0.0496
3,ACTTCCAA,0.303
4,ATGCACAT,-0.0442
5,CCGTAACA,-0.0541
6,CGGCTGGC,-0.174
7,AGTACAGG,0.108
8,GCGAAAGC,-0.198
9,ATAATGTC,-0.0336
10,AGCATTTG,-0.11
11,AAAGAAGG,0.0997
12,AAGGGCTC,-0.24
13,AATTGTTG,-0.00613
14,CACTCATA,0.0527
15,CGATGCCA,0.156
16,ACAGATTG,-0.226
17,GATAAAGA,0.011
18,CAAACCGC,-0.274
19,ACGCGCAA,0.0925
20,GTGACTCA,-0.118
21,GCAGTCAC,-0.224
22,ACCACCTG,0.0943
23,AGAATTGG,0.0667
24,CCGGAAAA,0.127
25,CGATATAA,0.044

row,Sequence,PBM E-score
1,CCATCCGG,-0.0299
2,ACCAATGC,-0.254
3,ACCCTTCG,0.198
4,ACTTCAAA,0.00813
5,CAAAGTAA,0.187
6,AATTTGGA,0.263
7,ACTTTCGG,0.031
8,AACGATTC,0.0439
9,CAAGTCGG,-0.16
10,CTACACAG,0.0109
11,GTAGGCAC,0.00518
12,CCGACGAA,0.0829
13,CAGTAAGA,-0.0297
14,ACCGTGGA,0.00734
15,ACTCACGG,-0.0752
16,AGTGACCG,-0.129
17,GCCTAGGC,-0.0945
18,ACGTCTAG,-0.00074
19,CCTGGCTC,0.00517
20,GCCTGACC,-0.241
21,AGGTGAGC,-0.131
22,ACCCCCTG,-0.183
23,AGTGGTGC,0.305
24,ACCACGCG,0.0135
25,ATAGTGGG,0.308

row,Sequence,PBM E-score
1,CGTCATTA,0.0426
2,CGTTTATC,-0.12
3,ATCATCCC,-0.202
4,AACCAACA,0.0425
5,ACTAAACA,0.212
6,ATGACGAC,0.0132
7,GTCAACCA,-0.238
8,CGTGGCAG,0.0503
9,GTTAGGGA,0.0237
10,CGCGTGGA,-0.128
11,ATAGGCCG,0.00788
12,CACAGGTC,-0.106
13,GTACTTAA,-0.0145
14,ATACAAAC,-0.00317
15,AACCGCGT,-0.0468
16,CTAGGAGA,-0.062
17,CACGTTCG,-0.185
18,TGACTCCA,0.0388
19,TTAATAAA,0.118
20,CATGAACC,-0.133
21,CACGTAGC,0.0605
22,CCCCTAAG,-0.0012
23,GAATTGGA,-0.0813
24,CGTTGCCC,-0.096
25,CCGTCAGG,-0.0623

row,Sequence,PBM E-score
1,CCGATACG,0.0148
2,ACTCCTGG,-0.00939
3,AAGACTTC,-0.0355
4,GACCATGC,-0.134
5,GTAATGGA,0.0927
6,GAGACCGA,-0.185
7,TCCAAAAA,0.253
8,CAACGTCA,-0.0477
9,AACGAACA,-0.0532
10,GGCGCCGA,0.286
11,AGCCTGCC,-0.173
12,ATGAAATA,0.0438
13,GGGTAGAA,0.0149
14,GGGAGTAC,-0.0905
15,ATCCATAC,0.139
16,ACCCAACG,-0.0521
17,AATCGCTA,-0.116
18,CCTAAAGC,-0.0253
19,TGAACTCA,-0.00543
20,GCCCTGAA,-0.132
21,AAGATTAG,0.0786
22,AAACTCCC,-0.144
